# Assay results taken from PubChem BioAssay AID504466 (National Center for Advancing Translational Sciences (NCATS), 2011).
# The whole screen tested about 330,000 compounds, of which about 4,200 (1.3%) were called active. Inconclusive means that the source gave no clear call. Such entries were picked first, then a sample of the others. The call rests on the fitted dose curve; in most records, active means well fitted activation curve with a large enough effect; inconclusive means small, poorly fitted or top-dose-only effect; inactive means no such curve, though single readings can be large or run the other way. Where the call is inconclusive, the potency comes from a doubtful curve fit.
# Assay: qHTS screen for small molecules that induce genotoxicity in human embryonic kidney (HEK293T) cells expressing luciferase-tagged ELG1; further: nearly all actives have a fitted effect of over 60% in size
# Settings: HEK293T ELG1-luciferase reporter, luminescence, 16 h; series mostly up to 46 µM
# Method in brief: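 Cells (2,000/well) expressing the ELG1-luciferase fusion are dosed by pin tool and kept 16 hr at 37 °C, 5% CO2. Signal comes from ONE-Glo luciferase reagent after 30 min at room temperature.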
# Potency means the concentration at half of the fitted maximal effect; tags describe the fitted curve by direction and shape.
row,SMILES,Potency
1,O=C(N/N=C/c1ccc(F)cc1)c1ccccc1,"inconclusive: 9.2 µM [activator, partial curve]"
2,OC1(c2ccc3ccccc3c2)CCN(Cc2ccccc2)C1 (stereo not drawn),"inconclusive: 20.6 µM [activator, partial curve, poor fit]"
3,O=C(/C=C/c1c(Cl)cccc1Cl)Nc1ccncc1,"inconclusive: 20.6 µM [activator, partial curve]"
4,Cc1c(C(=O)NCCCN2CCCC2=O)oc2ccccc12,"inconclusive: 23.1 µM [activator, partial curve]"
5,O=C(CCCc1cccs1)Nc1ccc2c(c1)OCO2,"inconclusive: 6.51 µM [activator, partial curve]"
6,COC(=O)Cc1ccc(NC(=S)N2CCCC(CO)C2)cc1 (stereo not drawn),"inconclusive: 2.06 µM [activator, full curve, poor fit]"
7,Cc1ccc2nc(-c3ccc(SCC(=O)Nc4nc(C)cs4)nc3)[nH]c2c1,"inconclusive: 10.3 µM [activator, partial curve]"
8,COc1ccccc1C1CC(c2ccco2)=NN1c1ccccc1 (stereo not drawn),inactive
9,Cc1ccc(-c2cc(C(=O)NCc3ccco3)no2)cc1,"inconclusive: 2.59 µM [activator, partial curve]"
10,CCOc1ccc(C(=O)c2ccc(OCC)c(N)c2)cc1N,"inconclusive: 20.6 µM [activator, partial curve]"
11,COCCOC(=O)C1=C(C)NC2(O)c3ccccc3C(=O)C12O (stereo not drawn),"inconclusive: 29.1 µM [activator, single point]"
12,CCOc1ccc(C(=O)Nc2nc(C)c(C(=O)OC)s2)cc1,active: 20.6 µM
13,CN(c1ccccc1)S(=O)(=O)c1cccc(NC(=O)c2cc3ccccc3oc2=O)c1,"inconclusive: 23.1 µM [activator, single point]"
14,CCC1CCCCN1C(=O)CCCc1ccccc1 (stereo not drawn),"inconclusive: 18.3 µM [activator, partial curve, poor fit]"
15,CC(Oc1cccc(Cl)c1)C(=O)Nc1cc(S(=O)(=O)N2CCCCC2)ccc1N1CCOCC1 (stereo not drawn),"inconclusive: 23.1 µM [activator, partial curve, poor fit]"
16,O=C(Cn1nnc(-c2ccc(N3CCOCC3)cc2)n1)OC1CCCCC1,inactive
17,CC1=CC(=C2C(=O)c3ccccc3C2=O)C=C(C)N1C,"inconclusive: 10.3 µM [activator, partial curve, poor fit]"
18,O=[N+]([O-])c1ccc2oc(C3CCCCC3)nc2c1,"inconclusive: 13 µM [activator, partial curve, poor fit]"
